Experimental data as given in the supplement of paper PMC10369915.
This is one part of the list. Rule as the data show it: active = 3.2 or more and inactive = the rest. Most of these values are background signal.

B1: ACTG1_Y91_T89I (peptide)
chain: WHHIFYNELRV
B2: ACTG1_Y198_T203K (peptide)
chain: LTERGYSFTTK
B3: ADAMTSL3_Y1365 (peptide)
chain: ENEGTYVCIAT
B4: ACVRL1_Y421_F425V (peptide)
chain: GIVEDYRPPVY
B5: ACVRL1_Y421 (peptide)
chain: GIVEDYRPPFY
B6: ACTN4_Y265 (peptide)
chain: YVSSFYHAFSG
B7: ACTL6A_Y69 (peptide)
chain: GGPTYYIDTNA
B8: ACVRL1_Y421_G416S_YF (peptide)
chain: SIVEDYRPPFF
B9: ADGRD1_Y183_E178K (peptide)
chain: KGLKVYVNGTL
B10: ADGRD1_Y571 (peptide)
chain: LSSISYVGCSL
B11: ADAMTS9_Y100_S96P (peptide)
chain: SPQAHYRLSAF
B12: ADA_Y290 (peptide)
chain: NDQANYSLNTD
B13: ADAMTSL3_Y1365_T1370A (peptide)
chain: ENEGTYVCIAA
B14: ADGRD1_Y85 (peptide)
chain: GVTLLYYGRYN
B15: ACVRL1_Y375_R374W (peptide)
chain: VGTKWYMAPEV
B16: ACVRL1_Y421_I417F_YF (peptide)
chain: GFVEDYRPPFF
B17: ADGRD1_Y85_T82M (peptide)
chain: GVMLLYYGRYN
B18: ADGRD1_Y183 (peptide)
chain: EGLKVYVNGTL

What follows are binders tested against SHP2 C-SH2 domain E139D (assay: enrichment score (SH2-bound / input frequency) (ratio); bacterial display of known human phosphotyrosine sites (pTyr-Var adds point mutants) read by sequencing; higher = stronger binding; tyrosines were phosphorylated by kinases first). Details: peptide library: pTyr-Var.
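Also: displayed peptides selected on beads carrying the immobilized SH2 domain, with library peptides lacking any tyrosine serving as negative controls.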

Enrichment score, inactive:
B1 1.16, B2 0.665, B3 0.943, B4 0.586, B5 0.865, B6 1.74, B7 0.834, B8 0.941, B9 1.36, B10 0.771, B11 0.825, B12 0.639, B13 0.831, B14 1.62, B15 1.34, B16 0.846, B17 2.03, B18 0.679

The binders below were run against SHP2 C-SH2 domain wild-type in the same assay as above. Details: peptide library: pTyr-Var.

Enrichment score, inactive:
B1 1.25, B2 0.527, B3 1.5, B4 0.813, B5 0.743, B6 2.08, B7 0.791, B8 0.758, B9 1.35, B10 0.609, B11 0.699, B12 0.46, B13 1.03, B14 1.13, B15 0.941, B16 0.84, B17 1.86, B18 0.75

The binders below were run against SHP2 N-SH2 domain L43F in the same assay as above. Details: peptide library: pTyr-Var.

Enrichment score, inactive:
B1 1.26, B2 0.567, B3 1.26, B4 0.813, B5 0.749, B6 1.94, B7 0.778, B8 1.16, B9 1.43, B10 0.817, B11 0.653, B12 0.533, B13 1.13, B14 1.45, B15 1.16, B16 1.17, B17 2.01, B18 0.651

These binders were tested against SHP2 N-SH2 domain T42A in the same assay as above. Details: peptide library: pTyr-Var.

Enrichment score, inactive:
B1 1.25, B2 0.583, B3 0.93, B4 0.593, B5 0.715, B6 1.82, B7 0.942, B8 0.697, B9 1.19, B10 0.777, B11 0.701, B12 0.449, B13 0.839, B14 1.23, B15 1.05, B16 1.02, B17 1.73, B18 0.726

Each binder was assayed against SHP2 N-SH2 domain T52S in the same assay as above. Details: peptide library: pTyr-Var.

Enrichment score, inactive:
B1 1.24, B2 0.835, B3 0.653, B4 0.991, B5 0.716, B6 2.04, B7 0.661, B8 0.932, B9 1.19, B10 0.695, B11 0.697, B12 0.457, B13 0.92, B14 1.47, B15 1.32, B16 1.24, B17 2.15, B18 0.77

These binders were tested against SHP2 N-SH2 domain wild-type in the same assay as above. Details: peptide library: pTyr-Var.

Enrichment score, inactive:
B1 1.41, B2 0.594, B3 1.67, B4 0.973, B5 0.818, B6 1.67, B7 0.936, B8 0.924, B9 1.37, B10 0.632, B11 0.702, B12 0.556, B13 1.33, B14 1.54, B15 1.25, B16 1.32, B17 1.56, B18 0.924
